The whole screen tested about 420,000 compounds, of which about 64,000 (15%) were called active. Inconclusive means that the source gave no clear call. Such entries were picked first, then a sample of the others. Calls follow the shape of the dose curve; as a rule, active = well fitted inhibition curve with a large enough effect; inconclusive = small, poorly fitted or top-dose-only effect; inactive = flat fitted curve, though single readings scatter. Potencies of inconclusive entries are left out as doubtful fits.
assay: qHTS for Inhibitors of human tyrosyl-DNA phosphodiesterase 1 (TDP1): qHTS in cells in absence of CPT; settings: DT40 Tdp1-/- hTDP1 cells, no CPT, ATP luminescence, 48 h; series mostly up to 46.2 µM; also: nearly all actives have a fitted effect of over 55% in size
Method in brief: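 Readout: luminescence from CellTiter-Glo after 30 min in the dark at RT. Cells: DT40 Tdp1-/- with stable hTDP1, 400/well. Exposure: compounds alone, ≥48 hr, 37 °C.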
Potency is read from the fitted curve at half-maximal effect; tags tell the direction and shape of the fitted curve.

| Compound | Potency |
| --- | --- |
| CCC1Oc2ccc(C)cc2N(Cc2cccc(C)c2)C1=O (stereo not given) | inconclusive [inhibitor, single point] |
| COc1ccc(NS(=O)(=O)c2cccc(C(=O)NNC(=O)c3ccc(O)c(Cl)c3)c2)cc1 | inactive |
| CCN(CC)c1ncnc2c1ncn2Cc1c(Cl)cccc1Cl | inconclusive [inhibitor, single point] |
| CN(C)S(=O)(=O)Oc1cccc(C(=O)Nc2ccccc2Cl)c1 | inconclusive [inhibitor, single point] |
| CC(=O)Nc1ccc(Nc2nc(C)c([N+](=O)[O-])c(Nc3ccc(NC(C)=O)cc3)n2)cc1 | active: 6.51 µM |
| CCOc1ccc(-n2c(SCc3ccc(C#N)cc3)nnc2-c2cccnc2)cc1 | inactive |
| O=C(CCn1c(=O)[nH]c2ccccc2c1=O)N1CC=C(c2ccccc2)CC1 | inconclusive [inhibitor, partial curve] |
| CSc1ncnc2c1ncn2CCCNCc1ccco1 | inactive |
| COc1ccc(CCCc2nnc(SCC(=O)Nc3cccc(C)c3)o2)cc1 | inactive |
| COc1ccc(S(=O)(=O)N2CCSC2c2ccccc2)cc1 (stereo not given) | inconclusive [inhibitor, single point] |
| CCCN1CCC(=NNc2ccc(C(=O)O)cc2)CC1 | inactive |
| CC1=C(C(=O)Nc2ccccc2)C(c2ccco2)C(C#N)=C(SCC(=O)Nc2cccc(C)c2C)N1 (stereo not given) | inconclusive [inhibitor, single point] |
| O=S(=O)(N1CCN(c2nc(-c3cccs3)nc3ccccc23)CC1)C(F)(F)F | inconclusive [inhibitor, single point] |
| Cc1ccc2nc(-c3ccc(NC(=O)C(C)N4C(=O)c5ccccc5C4=O)cc3)sc2c1 (stereo not given) | inactive |
| Cc1nn(CCC(=O)NCc2ccc(Cl)cc2)c(=O)c2nn(-c3ccccc3)c(C)c12 | inconclusive [inhibitor, full curve, poor fit] |
| COc1ccc(/C=C2\N=C(SC)N(c3ccccc3OC)C2=O)cc1 | inconclusive [inhibitor, partial curve] |
| Cc1cc(-c2nnc(SCC(=O)Nc3ccc(Br)cc3F)n2N)n[nH]1 | inactive |
| COc1ccc(-c2onc(C)c2C)cc1S(=O)(=O)NCc1ccc(C)o1 | active: 3.26 µM |
| CS(=O)(=O)c1ccc2nc(NC(=O)CCN3C(=O)c4ccccc4C3=O)sc2c1 | inactive |
| Cc1ccc(CN=c2c([N+](=O)[O-])nn(-c3cccc(Cl)c3)n2O)cc1 | inconclusive [inhibitor, single point] |
| COc1ccc(NC(=O)CSc2nc3ccccc3n2CC(=O)N2CCCCC2C)cc1 (stereo not given) | inconclusive [inhibitor, single point] |
| CCN1C(=O)C2C(c3ccccc3F)NC(Cc3ccc(O)cc3)(C(=O)OC)C2C1=O (stereo not given) | inconclusive [inhibitor, partial curve] |
| COc1cc(C2C(C#N)=C(N)OC3=C2C(=O)CC(C)(C)C3)ccc1OCCN1CCOCC1 (stereo not given) | inactive |
| COc1ccc(-n2nc(C(=O)NCC(=O)N3CCN(Cc4ccccc4)CC3)c3ccccc3c2=O)cc1 | inconclusive [inhibitor, single point] |

| Compound | Potency |
| --- | --- |
| O=S(=O)(Nc1c(O)ccc2ccccc12)c1cccc2ccccc12 | inconclusive [inhibitor, single point] |
| CC(C)(CNC(=O)c1cccc(S(=O)(=O)N2CCCCC2)c1)N1CCOCC1 | inactive |
| COc1ccc(/C=N/NC(=O)c2ccccc2F)cc1CN1CCN(c2ccc(F)cc2)CC1 | inconclusive [inhibitor, single point] |
| COCC(C)NC(=O)c1cc2c(=O)n3cccc(C)c3nc2s1 (stereo not given) | inactive |
| Cc1ccc(Cn2c(=N)c(C(=O)NC3CCCCC3)cc3c(=O)n4ccccc4nc32)cc1 | active: 6.51 µM |
| Cc1nn(-c2ccc(Cl)c(Cl)c2Cl)c(=O)c2ccccc12 | inconclusive [inhibitor, single point] |
| CN(CCC#N)C(=O)COC(=O)c1ccccc1C(=O)c1ccc(Cl)c([N+](=O)[O-])c1 | inconclusive [inhibitor, single point] |
| COc1cc(O)c(C(CC(=O)N2CCCCC2)c2ccc3c(c2)OCO3)c(OC)c1 (stereo not given) | inconclusive [inhibitor, single point] |
| C=CCOC(=O)C1=C(C)NC(=O)NC1c1cn(-c2ccccc2)nc1-c1cccs1 (stereo not given) | inconclusive [inhibitor, single point] |
| Cc1c(Cl)cccc1NC(=O)CC(c1ccc(F)cc1)N1Cc2ccccc2C1=O (stereo not given) | active: 20.6 µM |
| CCOc1cccc(CC(=O)NCc2ccc3c(c2)CCN3C(C)=O)c1OCC | inactive |
| Cn1c(N)c(C(=O)COC(=O)c2ccc(-c3ccccc3)cc2)c(=O)n(C)c1=O | inconclusive [inhibitor, single point] |
| CCN(c1ccc(Cl)cc1)S(=O)(=O)c1nnc(NC(=O)c2ccccc2C)s1 | active: 14.6 µM |
| COc1ccc(CN2C(=O)c3ccccc3C(/C=N\OCc3ccc(F)cc3)C2=O)cc1 (stereo not given) | active: 8.2 µM |
| COc1ccc(CNC(=O)C2CCCN(S(=O)(=O)c3ccc(Br)s3)C2)cc1 (stereo not given) | inconclusive [inhibitor, single point] |
| CC(=O)c1cccc(NC(=O)CN2C(=O)COc3ccc(Cl)cc32)c1 | inactive |
| O=C(NN=Cc1ccccc1OC(F)F)c1ccc(NS(=O)(=O)c2cccs2)cc1 | inconclusive [inhibitor, single point] |
| CN(C)c1nc(NCc2ccccc2)nc(SCC(=O)Nc2ccc(Cl)c(Cl)c2)n1 | inconclusive [inhibitor, partial curve] |
| CC12CCC(=O)C=C1CCC1C2C(O)CC2(C)C(c3csc(N)n3)CCC12 (stereo not given) | active: 3.26 µM |
| NC(=O)c1sc2nc3c(c(-c4ccco4)c2c1N)CCC3 | active: 14.1 µM |
| NS(=O)(=O)c1ccc(NC(=S)NCc2cccc(Cl)c2)cc1 | inconclusive [inhibitor, partial curve, poor fit] |
| CNS(=O)(=O)c1cccc(C(=O)OCc2cc(=O)n3cc(Br)ccc3n2)c1 | inconclusive [inhibitor, partial curve] |
| CSc1nc2[nH]c3c(c2c2ncnn12)CCCC3 | inconclusive [inhibitor, partial curve, poor fit] |
| COc1ccc(NC(=O)CN(Cc2ccco2)Cc2ccco2)cc1S(=O)(=O)N1CCCCC1 | inconclusive [inhibitor, single point] |

| Compound | Potency |
| --- | --- |
| CCn1c(=O)c([N+](=O)[O-])c(N2CCSCC2)c2ccccc21 | active: 23.1 µM |
| Cc1ccc2c(c1)nnn2C1CCN(C(=O)c2ccccc2F)CC1 | inactive |
| CCOC(=O)CC[C@H](NC(=O)Cn1cnc(C(=O)Nc2ccc(C)c(C)c2)n1)C(=O)OCC | inactive |
| COc1ccccc1C(=O)NCCC(=O)N1CCN(S(=O)(=O)c2cccc(Cl)c2)CC1 | inconclusive [inhibitor, single point] |
| CCN(CC(=O)Nc1c(F)cccc1F)C(=O)CSCc1ccc(C)cc1 | inconclusive [inhibitor, single point] |
| Cc1cccc2c1N(C(=O)CN1C(=O)c3ccccc3C1=O)C(C)(C)c1ssc(=S)c1-2 | inactive |
| Cc1ccccc1CSCc1nc2ccccc2[nH]1 | inconclusive [inhibitor, single point] |
| Cc1onc(-c2c(F)cccc2Cl)c1C(=O)ONC(=O)c1ccco1 | inactive |
| Cc1ccc(NC(=S)N/N=C/c2ccc(Cl)c([N+](=O)[O-])c2)cc1 | inactive |
| O=[N+]([O-])c1cc(-c2nc(-c3ccco3)no2)ccc1NCc1ccccc1 | inconclusive [inhibitor, partial curve] |
| O=C(CCN1CCN(C/C=C/c2ccccc2)CC1)Nc1ccccc1Cl | inconclusive [inhibitor, single point] |
| COC(=O)c1cc(NC(=O)COC(=O)C2CCC2)cc(C(=O)OC)c1 | inactive |
| CC1=C(CCN2CCN(C(C)C)C(CCO)C2)C(C)(C)CCC1 (stereo not given) | inconclusive [inhibitor, single point] |
| CS(=O)(=O)c1ccc(Cl)c(NC(=O)CSc2nc3ccccc3c(=O)n2Cc2ccco2)c1 | inconclusive [inhibitor, single point] |
| CCN1C(=O)[C@H]2[C@@H](c3ccc(-c4cccc(Cl)c4)c(OC)c3)N3CCCC[C@@]3(C(=O)OC)[C@H]2C1=O | active: 23.1 µM |
| Cc1ccc(C2=Nc3c(ccc4ccccc34)C(c3ccncc3)=NN2)cc1 | active: 11.6 µM |
| CCC(=O)Nc1cccc(-c2nc3ccccc3c(=O)o2)c1 | inconclusive [inhibitor, single point] |
| Cc1ccc2sc(NC(=O)C3CC3)nc2c1C | inconclusive [inhibitor, single point] |
| CCOC(=O)C1CCN(C(=O)CSc2ccccc2Cl)CC1 | inactive |
| O=C(C[C@H]1C/C=C\CC[C@H](Cc2ccc(F)cc2)C(=O)OC[C@@H](Cc2c[nH]c3ccccc23)NC1=O)NCCO | inconclusive [inhibitor, single point] |
| Cc1occc1C(=O)NNC(=O)COc1ccc(Br)cc1Br | inactive |
| Cc1ccc2nc(NC(=O)C3CCCN(S(=O)(=O)c4cccnc4)C3)sc2c1 (stereo not given) | active: 16.4 µM |

— PubChem BioAssay AID686978 (National Center for Advancing Translational Sciences (NCATS), 2013)
